Results taken from the supplement of paper PMC11417369.
± gives the standard deviation of the averaged measurements. Some of the results follow.

The sequences below were run on PfAP2-G AP2 domain (GST-tagged) (assay: gcPBM binding intensity (ln(normalized median fluorescence intensity)); higher = stronger DNA binding).
Outline: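 Binding of GST-tagged P. falciparum DNA-binding domains, expressed in E. coli and used at about 25 μg on average, was carried out for 1 h in 1× PBS containing 1% milk, 0.2 mg/ml BSA, 0.5% salmon testes DNA and 0.03% Triton X-100. The target was an Agilent 4 × 180k array of primer-extended double-stranded 36-bp intergenic genomic probes plus negative controls, read with Alexa488 anti-GST antibody at 488 nm. Binding intensity is the highest Masliner-normalised natural-log median intensity across replicate spots of either probe orientation.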

Row | Sequence | gcPBM binding intensity (ln)
1 | CAATTAAAATGCAACGGTACACATAAAAAAAATAAA [XGTACX_site6216] | 11 ± 0.52
2 | ATATAAGGATAACCTAGTACATATTATATGAAACAA [XGTACX_site8459] | 10.7 ± 0.39
3 | CCACAAGTATATAGTAGTACAATTTTTTTCTCTTTA [XGTACX_site4403] | 11.4 ± 0.83
4 | GAAATAGAGAAACACACACACATATATTTATGTATT [CACACA_site3967] | 9.77 ± 0.028
5 | ATAAAAATAAAAAGATGTACGTATTTTTTTTTTTTT [XGTACX_site5329] | 11.6 ± 0.91
6 | TATAAATAAATGCGTACACACTAATAAAAAAAAAAA [CACACA_site4630] | 11.6 ± 1.1
7 | CATTATTATGATAGTTGTACAATTTTTATAAAAAAT [XGTACX_site4411] | 11.3 ± 0.49
8 | AATATTATAAATGATACACACTTAAAATACACCCAC [CACACA_site5498] | 10.8 ± 0.59
9 | TGAATATTTACTTTAGCACACAATTTGTATTTGATT [CACACA_site960] | 10.03 ± 0.064
10 | TTTTTTTTTTTTGAGTGTACTAAAATATTACCTTTT [XGTACX_site646] | 11.2 ± 0.99
11 | TGGAAAAATAGGCACACACACATATATACCTATATA [CACACA_site4843] | 10.1 ± 0.12
12 | TTTTTTTTAAATATCACACACATATAACATATTCTA [CACACA_site7687] | 9.99 ± 0.18
13 | ATATGTATATAAATGTGTACTTATAAATATATATAT [XGTACX_site3250] | 11.5 ± 1.1
14 | AATATATTTTAATACACACACACATATATATATATA [CACACA_site5969] | 10.3 ± 0.43
15 | TCTTTTAAAAATATAAAAAGGAATATATAAAAATGT [CACACA_negctrl_site332] | 10.1 ± 0.15
16 | AATATATTCATCATATCAATATTGTCAAGCAAACGA [TGCATGCA_negctrl_site37] | 10.1 ± 0.26
17 | TATTCTGTGTATAAAAGTACAAATATTTAAATGTAT [XGTACX_site8234] | 11.1 ± 0.78
18 | TATAAACATATAAAAAGTACATACCAATTAATATTA [XGTACX_site967] | 11.3 ± 1
19 | GGATAAAATGCTACGAGTACATAAGCATTTTTCCCT [XGTACX_site7796] | 11.7 ± 1.2
20 | TTCTTTAATAAAATAATCTCAAAGAAAATTTTTTCT [GTGCAC_negctrl_site589] | 9.46 ± 0.13
21 | AATAAATAGATATATACACACATATATGTGTACATA [CACACA_site7476] | 11.6 ± 0.92
22 | TTATCCATTTTAATCACACATACTTTACTTTGGAAC [CACACA_site5584] | 10 ± 0.11

Row | Sequence | gcPBM binding intensity (ln)
23 | GAATTTATTTTATTTTCACACACAAAAATAAATATC [CACACA_site8762] | 10.1 ± 0.21
24 | CATAAGCACAAGCACAAGCACACATTTATATATATA [CACACA_site882] | 10.1 ± 0.16
25 | CGCATATTTTATGTTTGTACTCATATGAATATCATA [XGTACX_site4717] | 11.3 ± 0.59
26 | TATATTATTTATATTTGTACACAGCGATATGAAATA [XGTACX_site987] | 11 ± 0.57
27 | TACAATTTAAAACACACACACAATAATACATATATA [CACACA_site1251] | 10.2 ± 0.15
28 | ATATTATTATAAACTTCACACATTTTATGGGTTTTT [CACACA_site4631] | 9.64 ± 0.24
29 | TTGTATATATTAAATTGTACTTATTTTTTGTATATA [XGTACX_site3251] | 11.4 ± 0.88
30 | CAAACACCCAAACACACACACACATACATACATACA [CACACA_site8044] | 10.7 ± 0.52
31 | TTTTTTTTTTTTTGTGTGCACCTTATTTTTTTGTAT [GTGCAC_site9617] | 10.6 ± 0.81
32 | GTATATATTTTGTATTCATTTGTCACATATAATAGA [CACACA_negctrl_site506] | 10.1 ± 0.12
33 | ATAGTAATGCATAAATATATATTATATATATATATA [XGTACX_negctrl_site576] | 9.94 ± 0.38
34 | CTATTGTTAAATATAATACACACGTTTTTAAAAATA [CACACA_site2183] | 10.03 ± 0.071
35 | ATTATATATACATAATGTACATATATATATTACCTT [XGTACX_site7624] | 10.8 ± 0.54
36 | TATAAAATGACTATATATAATATTAAAAAAAAAAAA [TGCATGCA_negctrl_site387] | 9.46 ± 0.18
37 | AAATTAGGAAATTGCACACAAAAAAAAACATATTAT [CACACA_site4074] | 10.09 ± 0.099
38 | TTTTTTTATTTTTTTATAAATGTATTTCTATTATTT [CACACA_negctrl_site1562] | 9.63 ± 0.028
39 | AAAAAAAAAAAAAATTCACACACATATAAAAAATTA [CACACA_site8140] | 9.76 ± 0.17
40 | TAAATTAAGAATTTTACACACATTAAATAAAAAAAA [CACACA_site3638] | 9.805 ± 0.078
41 | AAAAATATATTATATGTACACACAAAATTAAGGGAT [CACACA_site8384] | 11.5 ± 0.83
42 | TGAATATTTATACATGCACACTAAAATAAAGAATCT [CACACA_site5351] | 10.1 ± 0.057
43 | TTTGAACGAAAATACTCACACATATTTATAAACATT [CACACA_site5182] | 10.1 ± 0.17
44 | GTATTTTTAAATGACACACACATATATATATATATA [CACACA_site1662] | 10.2 ± 0.29
